# In publication PMC4336329 (PLoS ONE, 2015):
# Among all 310,000 compounds or so, about 14,000 (4.5%) showed an effect of 50% or more. The effect is printed as a negative number. Some of the results follow.
# Biological target: human ether-à-go-go-related gene (hERG) potassium channel (human, UniProt Q12809)
# Test: primary screen, population patch clamp on CHO cells stably expressing hERG
# 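Further: peak tail current of the secondary pulse compared with the same well before compound.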
# Chain of human ether-à-go-go-related gene (hERG) potassium channel (Q12809 whole entry, looked up): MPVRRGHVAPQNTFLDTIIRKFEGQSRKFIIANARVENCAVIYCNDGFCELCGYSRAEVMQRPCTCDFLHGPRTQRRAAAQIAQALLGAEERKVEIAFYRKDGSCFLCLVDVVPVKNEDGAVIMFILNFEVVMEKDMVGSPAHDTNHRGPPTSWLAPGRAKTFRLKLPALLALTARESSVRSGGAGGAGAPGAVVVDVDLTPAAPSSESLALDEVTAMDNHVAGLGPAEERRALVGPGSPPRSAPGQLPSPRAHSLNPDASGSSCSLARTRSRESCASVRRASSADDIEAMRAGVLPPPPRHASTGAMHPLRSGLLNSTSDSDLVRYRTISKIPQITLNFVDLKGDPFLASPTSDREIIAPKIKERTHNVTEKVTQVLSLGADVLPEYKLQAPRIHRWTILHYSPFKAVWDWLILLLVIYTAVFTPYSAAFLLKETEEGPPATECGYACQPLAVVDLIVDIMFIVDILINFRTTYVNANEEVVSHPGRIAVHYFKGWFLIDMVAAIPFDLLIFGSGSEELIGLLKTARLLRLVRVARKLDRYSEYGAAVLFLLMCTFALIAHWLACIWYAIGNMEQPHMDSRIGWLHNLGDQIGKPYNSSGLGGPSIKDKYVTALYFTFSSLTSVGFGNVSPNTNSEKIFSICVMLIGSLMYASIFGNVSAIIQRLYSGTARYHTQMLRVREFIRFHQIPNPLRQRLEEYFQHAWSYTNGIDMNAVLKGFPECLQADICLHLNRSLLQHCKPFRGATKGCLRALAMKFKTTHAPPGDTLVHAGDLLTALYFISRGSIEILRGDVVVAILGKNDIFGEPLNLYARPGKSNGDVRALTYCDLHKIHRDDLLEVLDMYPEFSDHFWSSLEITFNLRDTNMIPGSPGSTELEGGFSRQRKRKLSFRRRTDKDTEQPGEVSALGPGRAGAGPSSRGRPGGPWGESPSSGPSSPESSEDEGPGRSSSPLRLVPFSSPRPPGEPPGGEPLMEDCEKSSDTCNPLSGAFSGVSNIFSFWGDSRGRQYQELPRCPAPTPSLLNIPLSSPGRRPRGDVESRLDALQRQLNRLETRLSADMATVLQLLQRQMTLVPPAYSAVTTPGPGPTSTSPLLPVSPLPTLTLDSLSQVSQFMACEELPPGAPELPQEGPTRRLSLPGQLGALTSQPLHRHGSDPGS
row,SMILES,"hERG current change (%, negative = inhibition) at 10uM [%]"
1,CCOc1ccc(CCNC(=O)c2ccc3c(=O)[nH]c4c(C(=O)NC(C)C)sc(=S)n4c3c2)cc1,10.2
2,Cc1nn(CCCC(=O)Nc2cccnc2)c(C)c1[N+](=O)[O-],11.4
3,CCCCCn1c(N2CCCC2)nc2c1c(=O)n(C)c(=O)n2C,-9.54
4,CN(C)c1ccc(/C=N/NC(=O)C2CC2c2ccccc2)cc1 (stereo not drawn),-74.9
5,Cn1c(COc2ccccc2)nnc1SCCC(=O)Nc1ccccc1,-18.9
6,CN1CCN(C(CNC(=O)C(=O)NC2CCCC2)c2ccc(F)cc2)CC1 (stereo not drawn),-19.4
7,O=C(O)/C=C/c1cccc(NS(=O)(=O)c2ccccc2)c1,-0.468
8,C=CCNc1nc(N)c(C(=C(C#N)C#N)c2ccc(Br)cc2)s1,-9.15
9,CC(=O)c1c(C)n(CC(=O)NCc2ccc3c(c2)OCO3)c2ccccc12,-6.29
10,CCOC(=O)Cc1nc2ccccc2o1,29.4
11,O=C(O)C(=O)O.O=S(=O)(c1ccc(Cl)cc1)N(CCCN1CCOCC1)Cc1cccs1,-63.7
12,COC(=O)c1ccccc1NC(=O)CCC(=O)N1CC(C)Oc2ccc(C)cc21 (stereo not drawn),-16.5
13,Cc1noc2ncnc(Oc3cc(Cl)ccc3Cl)c12,11.4
14,CCCN(C(=O)COC(=O)Cn1c(=O)oc2ccccc21)c1c(N)n(Cc2ccccc2)c(=O)[nH]c1=O,8.49
15,N#Cc1c(-c2cccc(F)c2)cc(-c2ccccc2)nc1Br,16
16,COc1cccc(NC(=O)COC(=O)c2c(-c3ccccc3)noc2C)c1,2.53
17,COc1ccc(N2CCN(C(=O)CCNS(=O)(=O)c3ccc(C)cc3)CC2)cc1,-18
18,Cc1noc(C)c1COc1ccc(C(=O)OCC(N)=O)cc1,18
19,Cc1coc2c(C)c3oc(=O)c(CCC(=O)NCCC(=O)O)c(C)c3cc12,21.3
20,CCOC(=O)C(NC(=O)C(Cc1ccc(N(CCCl)CCCl)cc1)NC(C)=O)C(C)C (stereo not drawn),-3.97
21,CCOc1ccccc1NC(=O)CCn1cccc1,-0.776
22,COc1cccc(-c2cc(C(=O)Nc3ccn(Cc4ccc(C)cc4)n3)no2)c1,17.3

row,SMILES,"hERG current change (%, negative = inhibition) at 10uM [%]"
1,CC1CC(C)CN(C(=O)c2nn(C)c3c2CSc2ccccc2-3)C1 (stereo not drawn),-5.28
2,COc1ccc(NC(=O)CC(C(=O)O)N2CCCCC2)cc1 (stereo not drawn),-2.4
3,CC(C)(C)OC(=O)c1c(N)n(Cc2ccco2)c2nc3ccccc3nc12,-5.55
4,O=[N+]([O-])c1ccc(C(O)CN=Cc2ccc(O)cc2O)cc1 (stereo not drawn),6.19
5,Cc1ccc(S(=O)(=O)CCC(=O)Nc2ccc3nc(C)sc3c2)cc1,3.75
6,COc1ccc2nc(C)cc(Nc3ccc(N4CCOCC4)cc3)c2c1.Cl,-60.9
7,COc1ccc(N2C(=O)CSC2c2ccccc2[N+](=O)[O-])cc1 (stereo not drawn),-3.3
8,Cc1ncc([N+](=O)[O-])n1CCOC(=O)NC(Nc1ccc(F)cc1)C(Cl)(Cl)Cl (stereo not drawn),-54.6
9,O=C1N(c2ccccc2)C[C@@H]2C[C@@H](c3cccs3)N3CCC[C@@]123,-11.5
10,COc1ccccc1C(c1c(O)nc(SC)[nH]c1=O)c1c(O)nc(SC)[nH]c1=O,19.2
11,O=C(NCCCn1ccnc1)C(=O)NCC1OCCN1S(=O)(=O)c1ccccc1 (stereo not drawn),10.6
12,COc1ccc(CN2C(=O)c3ccccc3C2=O)cc1C(=O)N(C)CC(=O)Nc1ccc(F)cc1,-25.1
13,O=c1c2ccccc2nc2sc(Nc3cccc(Cl)c3)nn12,5.94
14,Cc1cc(=O)oc(C)c1C(=O)Nc1cccnc1Cl,12.8
15,C=CCn1c(SCC(=O)NNC(=O)Nc2ccc(C)cc2)nnc1-c1ccccc1,8.5
16,O=C(NC1CCS(=O)(=O)C1)c1ccc(N2CCCCC2)c([N+](=O)[O-])c1 (stereo not drawn),-0.968
17,Oc1ccc(Br)cc1-c1ccn[nH]1,-4.61
18,CCCCn1c(N)c(N(CCOC)C(=O)c2cc(-c3ccc(C)cc3)nc3ccccc23)c(=O)[nH]c1=O,6.75
19,O=C(O)c1ccc(CSc2nnc(-c3ccccc3Cl)n2-c2ccccc2)cc1,14.6
20,CC(C)CCN1CC(C(=O)NCc2ccc(F)cc2)CC1=O (stereo not drawn),-3.6
21,COc1ccc(NC(=O)CCn2cccc2)cc1,-1.47
22,CCOc1ccccc1NC(=O)CSc1nnnn1-c1ccc(C(=O)OC)cc1,0.536

row,SMILES,"hERG current change (%, negative = inhibition) at 10uM [%]"
1,COc1ccc2c(c1)CCN1C2CCN2C(=O)CCC21 (stereo not drawn),6.69
2,Cc1ccc(N2CC(NS(=O)(=O)c3cccs3)CC2=O)cc1C (stereo not drawn),0.686
3,O=C(NCCC1=CCCCC1)c1cc(-c2ccccn2)nc2ccccc12,8.77
4,Cc1ccc(/C=C/C(=O)NCc2cccs2)o1,-7.91
5,CC(C)c1ccc(NC(=O)C2C3C=CC4(O3)C2C(=O)N(CCCN2CCCCC2)C4C(=O)NC2CCCCC2)cc1 (stereo not drawn),9.89
6,O=C(CN1CCN(c2ccccn2)CC1)Nc1ccccc1Br,-31.6
7,O=[N+]([O-])c1cccc(-c2ccc(/C=N/n3c(-c4ccccc4)n[nH]c3=S)o2)c1,3.09
8,Cc1cc(C)c(S(=O)(=O)Cc2ccc(Cl)cc2)c(=O)[nH]1,13.2
9,COc1ccc(N=C(NN)c2ccc3ccccc3n2)cc1,8.02
10,O=C(CN1C(=O)c2cccc3cccc(c23)C1=O)NCCCO,9.79
11,COc1cccc(C(=O)NC(C)c2cccc3ccccc23)c1OC (stereo not drawn),-10.4
12,COc1ccc(Nc2nnc(-c3ccc(C)cc3)c3ccccc23)cc1C(=O)N1CCCCC1,-33.7
13,CCN1CCN(c2ccc(S(=O)(=O)N3CCCCC3)cc2NC(=O)c2ccc(OC(F)F)cc2)CC1,-57.2
14,CCCCn1c(N)c(N(CC(C)C)C(=O)CCCc2nc3ccccc3s2)c(=O)[nH]c1=O,3.63
15,Cc1ccc(S(=O)(=O)NC(C)(C)CN2CCCCC2)cc1,3.77
16,O=C(CN1CCN(c2cccc(C(F)(F)F)c2)CC1)NCc1ccccc1,-17.1
17,CC1=NCCc2c1[nH]c1ccccc21,-22.7
18,CCCC(=O)c1c[nH]c(C(=O)NCc2cccnc2)c1,20.9
19,O=C(O)C1CC(=O)N(Cc2ccc(F)cc2)C1 (stereo not drawn),1.36
20,Cc1cc(C)c2nc(C(F)(F)F)nc(NCCCN3CCOCC3)c2c1,-10.1
21,Cc1ccccc1S(=O)(=O)N(CC(O)CN1C(=O)NC(C)(C)C1=O)c1ccccc1 (stereo not drawn),1.47
22,O=[N+]([O-])c1ccc(Cl)cc1CNc1ccc(F)c(F)c1,0.95

row,SMILES,"hERG current change (%, negative = inhibition) at 10uM [%]"
1,Cc1ccccc1OCC(=O)OCn1nnc2ccccc2c1=O,19.6
2,COc1ccccc1Nc1nn2c(=O)c3ccc(C(=O)N4CCC(C)CC4)cc3nc2s1,1.58
3,COc1ccc(-c2ccc(-c3nnn(CC(=O)N4CCOCC4)n3)cc2)cc1,-4.7
4,CC(=O)NCC(c1cccs1)S(=O)(=O)c1ccc(F)cc1 (stereo not drawn),23.6
5,N#C/C(=N\Nc1cccc(F)c1)C(=N)N1CCCCCC1,-17.6
6,Cc1ccc(C(=O)NCCCNC(=O)c2ccc(C)nc2)cc1,10.5
7,COC(=O)c1c(C)[nH]c(C)c1C(=O)c1ccccc1Cc1ccccc1,-9
8,c1ccc(CNCCc2c[nH]c3ccccc23)cc1,-13.3
9,O=C(Nc1ncc(Cc2ccc(C(F)(F)F)cc2)s1)c1ccc(-c2cccc([N+](=O)[O-])c2)o1,20.2
10,O=C(CSc1nnc(Cc2cc(=O)[nH]c(=O)[nH]2)n1-c1ccc(Cl)cc1)NC1CCCC1,10.7
11,CN(CC(=O)Nc1ccc(OC(F)(F)F)cc1)C(=O)C1CCC1,-1.21
12,CCc1nnc(NC(=O)CSc2nnc(-c3ccoc3C)n2-c2cccc(C)c2)s1,-58.3
13,COc1ccc2nc(SCc3cccnc3)c(C#N)cc2c1,-1.26
14,COc1ccc(-c2nnc(SCC(=O)NC(C)c3ccccc3)o2)cc1OC (stereo not drawn),-6.11
15,COc1ccc(S(=O)(=O)NCc2c(-c3ccccc3)noc2C)c(OC)c1,-16.8
16,Cl.OCCN(CCO)CC(O)CN1c2ccccc2Sc2ccccc21 (stereo not drawn),-12.9
17,O=C(Nc1ccc2c(c1)OCCO2)C1CCN(S(=O)(=O)c2ccc(Br)s2)CC1,3.85
18,COC(=O)C1=C(C)NC2=C(C(=O)CC(C)(C)C2)C1c1cnn(C)c1C (stereo not drawn),15.6
19,O=C(CSc1nc2ccccc2c(=O)n1CC1CCCO1)N1CCN(c2ccccc2)CC1 (stereo not drawn),-73.4
20,O=C(O)c1cc2c(s1)-c1ccccc1OC2,9.73
21,O=C(CSc1ccccc1)NCCSCc1ccccc1,-3.89
